Assay results: PubChem BioAssay AID1345082 (National Center for Advancing Translational Sciences (NCATS), 2018)
The campaign covered roughly 94,000 compounds. About 4,000 (4.3%) were called active. The inconclusive results got no clear call from the source; some entries with a clear call stand among them for comparison. Calls follow the shape of the dose curve; as a rule, active = well fitted inhibition curve with a large enough effect; inconclusive = small, poorly fitted or top-dose-only effect; inactive = no such curve, though single readings can be large or run the other way. A potency beside an inconclusive call is a rough fit, not a confirmed value.

Assay: Cytotoxic Profiling in NIH 3T3 Cell Line of Diverse Libraries Using Quantitative High-Throughput Screening; also: nearly all actives have a fitted effect of over 55% in size
Settings: NIH 3T3 viability, CellTiter-Glo ATP luminescence, 48-72 h; series mostly up to 96.7 µM
Method in brief: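 Cells were seeded at 400 per well, treated with pin-transferred compound, and kept 48 or 72 hr at 37 °C before CellTiter-Glo addition and luminescence imaging of cellular ATP.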
Potency is read from the fitted curve at half-maximal effect; tags tell the direction and shape of the fitted curve.

SMILES	Potency
Cc1ccc(-n2nc(-c3c(C)nc4scc(CC(=O)NCc5ccco5)n4c3=O)cc2C)cc1	inactive
Cc1occc1-c1nc2ncccc2[nH]1	inconclusive: 126 µM [inhibitor, partial curve, poor fit]
CN(Cc1csc(-c2ccccc2)n1)c1cc(C2CC(O)C2)nc(N)n1 (stereo not drawn)	inconclusive: 35.5 µM [inhibitor, partial curve, poor fit]
COc1cc(=O)n2c(c1C(=O)Nc1ccccc1Cl)CCCC2	inconclusive: 70.8 µM [inhibitor, single point]
CN1CCN(CCNC(=O)c2ccc(-c3ccc(N4CCCCCC4)nc3)cc2)CC1	active: 14.1 µM
Cc1ccc(CN2CCN(C(=O)CC3CCOCC3)CC2)cc1	inactive
CCSCCNC(=O)c1c(C)noc1-c1ccc(C(C)(C)C)cc1	inconclusive: 31.6 µM [inhibitor, partial curve]
CN(C)c1ccc(C(=O)N2CCN(c3cc(-c4ccc(Cl)cc4)[nH]n3)CC2)cc1	inconclusive: 11.2 µM [inhibitor, full curve, poor fit]
COc1ccc(OCC(=O)N2CCC(Cc3nc(-c4cnccn4)no3)CC2)cc1	inconclusive: 70.8 µM [inhibitor, single point]
CCc1[nH]c2c(CNC(=O)c3cnc(C)nc3)cc(C)cc2c1C	inconclusive: 7.94 µM [inhibitor, full curve, poor fit]
CN1CCC(NC(=O)C(C)(C)Oc2nn(CCOc3ccccc3)c3ccccc23)CC1	active: 39.8 µM
CCOC(=O)C1(Cc2cccc(Cl)c2)CCCNC1 (stereo not drawn)	inconclusive: 50.1 µM [inhibitor, partial curve, poor fit]
Cc1noc(C)c1CC(=O)N1CCCCCC1c1nnc(-c2ccccc2)o1 (stereo not drawn)	inactive
COc1ccc(-c2cn(C)c(=O)n3cc(COc4ccnn4C)nc23)c(C)c1	inconclusive: 79.4 µM [inhibitor, partial curve]
CC(=O)N1CCN(c2nccc(Nc3ccccc3Cl)n2)CC1	inactive
CC(C)c1ccccc1OCC(=O)c1ccc2c(c1)N(CC(=O)N1CCCCC1)C(=O)CO2	inconclusive: 28.2 µM [inhibitor, partial curve, poor fit]
C=CCN1CCN(C(=O)CCC[C@@H]2[C@H]3CCCN4CCC[C@@H](CN2Cc2cccnc2)[C@@H]34)CC1	inactive
C=CCC1(CO)CCCN(CC(=O)NC2CCCCC2)C1 (stereo not drawn)	inactive
Cc1cccc(C)c1-c1cc(C(=O)NCc2ccc(F)cc2)c2cnn(C)c2n1	inconclusive: 50.1 µM [inhibitor, partial curve, poor fit]
O=C1N[C@@H]2CCN(C(=O)c3ccccc3)[C@@H]2C(=O)N1c1ccc(Oc2ccccc2)cc1	inactive
O=C(Cc1cccc(F)c1)NC1CCN(c2cc(-c3cccs3)[nH]n2)C1 (stereo not drawn)	inconclusive: 44.7 µM [inhibitor, partial curve, poor fit]

SMILES	Potency
CCCOCCCNC(=O)c1c(C)noc1-c1ccc(C(C)(C)C)cc1	inconclusive: 44.7 µM [inhibitor, partial curve, poor fit]
COc1ccccc1Nc1cnc2ccc(-c3ccc(OC)c(OC)c3)nn12	inconclusive: 8.91 µM [inhibitor, full curve, poor fit]
COCC(=O)N1CCCC(c2cc(N3CCOCC3)nc(C)n2)C1 (stereo not drawn)	inactive
Cc1ccc(S(=O)(=O)Nc2cccn3nc(C4CCC4)nc23)cc1	inconclusive: 39.8 µM [inhibitor, partial curve, poor fit]
O=C(Cc1cccc(F)c1)N1CCCC(c2noc(COc3ccccc3)n2)C1 (stereo not drawn)	inconclusive: 50.1 µM [inhibitor, partial curve, poor fit]
O=C(c1cc(C2CC2)nc2c1c(C1CCCN1)nn2-c1ccccc1)N1CCC(F)CC1 (stereo not drawn)	active: 31.6 µM
O=C(Nc1cnc(-c2cccc(Cl)c2)nc1)c1ccc(F)cc1	inconclusive: 50.1 µM [inhibitor, partial curve, poor fit]
CSc1ccc(-c2cccc(C(=O)NCC(=O)N3CCN(c4ncccn4)CC3)c2)cc1	inconclusive: 39.8 µM [inhibitor, partial curve, poor fit]
Cc1noc(C)c1CC(=O)N1CCCC(c2noc(COc3ccccc3)n2)C1 (stereo not drawn)	inactive
Cc1ccc(C)c(Cn2ccn3nc(-c4ccc(F)cc4)c(CO)c3c2=O)c1	inconclusive: 12.6 µM [inhibitor, full curve, poor fit]
O=C(Nc1ccc(Oc2ccccc2)cc1)N[C@H]1CO[C@H]2[C@@H]1OC[C@@H]2Nc1nccc(-c2cccc(F)c2)n1	inconclusive: 79.4 µM [inhibitor, partial curve, poor fit]
CS(=O)(=O)c1ccc(O[C@H]2COCCN(C(=O)c3cnccn3)C2)cc1	inactive
O=C(Cc1ccc(Br)cc1)N1CCCN(C(=O)C2CC2)c2ccccc21	inconclusive: 56.2 µM [inhibitor, partial curve, poor fit]
CN1c2cc(C(=O)Nc3cccc(OC(F)(F)F)c3)ccc2C(=O)N2CCCCC21 (stereo not drawn)	inconclusive: 39.8 µM [inhibitor, partial curve, poor fit]
NC(=O)[C@@H]1CN(C(=O)OCc2ccccc2)[C@H]2c3ccccc3O[C@@H]12	inconclusive: 50.1 µM [inhibitor, partial curve, poor fit]
CCC1CN(C(=O)c2ccc3nc[nH]c3c2)CCC(=O)N1Cc1ccccc1 (stereo not drawn)	inactive
O=C1CCCCCN1C1CCN(Cc2ccccc2C(F)(F)F)CC1	inconclusive: 89.1 µM [inhibitor, partial curve, poor fit]
Cn1nc(C2CCCN(C(=O)CCC3CCCC3)C2)n(Cc2ccccc2)c1=O (stereo not drawn)	inconclusive: 50.1 µM [inhibitor, partial curve, poor fit]
Cc1ccc(C(=O)N2CCCC(N3C(=O)c4c(c(C)nn4-c4ccccc4)C3C)C2)cc1 (stereo not drawn)	inconclusive: 20 µM [inhibitor, full curve, poor fit]
COc1ccc(CNC(=O)CC[C@H]2CNC(=O)[C@@H]3[C@@H](CCN3Cc3cccc(Cl)c3)N2C)cc1	inconclusive: 31.6 µM [inhibitor, partial curve, poor fit]
Cc1ccccc1C(=O)N1CCC2(CC1)CC(=O)N(c1ccccc1)c1ccccc1O2	inconclusive: 44.7 µM [inhibitor, partial curve, poor fit]

SMILES	Potency
Cc1noc2c(NCCCn3ccnc3)cc(-c3cccs3)nc12	inconclusive: 17.8 µM [inhibitor, full curve, poor fit]
O=C(NCc1ccccc1)C1CCCN1C(=O)c1cccc(-c2cccnc2)c1 (stereo not drawn)	inactive
COCCN1CCNc2nc(COc3cccc(F)c3)n(Cc3ccccc3)c2C1=O	inconclusive: 100 µM [inhibitor, single point]
O=C(NC1CCCCC1)c1ccc2oc(-c3ccncc3)nc2c1	inactive
CC(=O)Nc1cc(-c2cc(C(=O)NCc3cccnc3)c3c(c2)N(C)CCO3)ccn1	inconclusive: 56.2 µM [inhibitor, partial curve, poor fit]
CCC(=O)Nc1ccc(-c2c(-c3cc(OC)cc(OC)c3)nn(-c3ccc(C)cc3)c2OC(C)=O)cc1	inactive
O=C(Cc1cccc(Cl)c1)N1CCC(C(=O)N2CCC(c3nc4ncccc4[nH]3)CC2)C1 (stereo not drawn)	inactive
CCNC(=O)N1CCC2(CC1)CN(c1ccccc1)C2=O	inactive
O=C1CC2(CCN([S+](=O)([O-])c3cccs3)CC2)Oc2ccccc2N1	inconclusive: 50.1 µM [inhibitor, partial curve, poor fit]
Cn1cc(CN[C@H]2[C@H](O)[C@H](O)C[C@@H]2c2ccccc2)c2ccccc21	inconclusive: 89.1 µM [inhibitor, partial curve]
Cc1ccccc1C(=O)NC[C@@H]1CC[C@H]2C[C@@H]1C2(C)C	inconclusive: 100 µM [inhibitor, partial curve]
CC1(C)C(=O)N(Cc2ccccc2)[C@H]2CN(CC3CCOC3)C[C@H]2[S+]1(=O)[O-] (stereo partly drawn)	active: 89.1 µM
O=C(c1ccc2c(c1)OCO2)N1CCC(n2c(=O)[nH]c3ccccc32)CC1	inactive
CCc1noc(-c2cn(C3CCN(C(=O)c4cc(Cl)ccc4OC)C3)nn2)n1 (stereo not drawn)	inconclusive: 28.2 µM [inhibitor, full curve]
O=C(c1cccc(-c2ccccn2)c1)N1CCN(C(=O)c2ccccc2Cl)CC1	inconclusive: 39.8 µM [inhibitor, partial curve, poor fit]
Cc1noc(C)c1-c1cc2cc(CO)oc2c(Nc2cccnc2)n1	inconclusive: 22.4 µM [inhibitor, full curve, poor fit]
O=C(CCCc1ccccc1)N1CCC[C@H]1c1nc(-c2ccccc2)no1	inconclusive: 50.1 µM [inhibitor, partial curve, poor fit]
COc1ccc(-c2nc(CC3CCN(C(=O)c4ccoc4)C3)no2)cc1 (stereo not drawn)	inconclusive: 44.7 µM [inhibitor, partial curve, poor fit]
COc1ccc(Cn2c(=O)c(C(=O)N3CCN(C(=O)c4ccc(Cl)cc4)CC3)nc3cccnc32)cc1	inconclusive: 44.7 µM [inhibitor, partial curve, poor fit]
COCC(=O)NC1CCC12CCN(C(=O)Cc1cccnc1)CC2 (stereo not drawn)	inactive
COc1ccc(CN2CCNc3cc(-c4ccccc4)ncc3C2)cc1	inconclusive: 17.8 µM [inhibitor, partial curve, poor fit]
